Measured values from PMC9525679, “Inositol hexakisphosphate is required for Integrator function” (Nature Communications, 2022).

B1: human INTS11, subunit of the human Integrator cleavage module (enzyme)
chain: not shown
notes: Integrator complex subunit 11 (INTS11), human; source: insect cells, purified as human ICM sample
B2: human INTS11 K462E (in the K462E mutant human ICM) (enzyme)
chain: not shown
notes: Integrator complex subunit 11 (INTS11), human, with K462E; also called K462E mutant of human ICM; source: insect cells, purified as human ICM sample
B3: human INTS9 K510E/R511E (in the K510E/R511E mutant human ICM) (natural protein)
chain: not shown
notes: Integrator complex subunit 9 (INTS9), human, with K510E and R511E; also called K510E/R511E double mutation in IntS9; source: insect cells, purified as human ICM sample

What was measured:
Experiment in all cases: SEC; gel filtration of wild-type, K462E and K510E/R511E mutant human ICM purified from insect cell expression; SDS gels of the mutants
Conditions in all cases: both partners purified
[1] = molecular target: T1, human INTS4, subunit of the human Integrator cleavage module (human, UniProt Q96HW7)
T1 construct: Integrator complex subunit 4 (INTS4), human; source: insect cells, purified as human ICM sample
T1 sequence (Q96HW7 whole entry): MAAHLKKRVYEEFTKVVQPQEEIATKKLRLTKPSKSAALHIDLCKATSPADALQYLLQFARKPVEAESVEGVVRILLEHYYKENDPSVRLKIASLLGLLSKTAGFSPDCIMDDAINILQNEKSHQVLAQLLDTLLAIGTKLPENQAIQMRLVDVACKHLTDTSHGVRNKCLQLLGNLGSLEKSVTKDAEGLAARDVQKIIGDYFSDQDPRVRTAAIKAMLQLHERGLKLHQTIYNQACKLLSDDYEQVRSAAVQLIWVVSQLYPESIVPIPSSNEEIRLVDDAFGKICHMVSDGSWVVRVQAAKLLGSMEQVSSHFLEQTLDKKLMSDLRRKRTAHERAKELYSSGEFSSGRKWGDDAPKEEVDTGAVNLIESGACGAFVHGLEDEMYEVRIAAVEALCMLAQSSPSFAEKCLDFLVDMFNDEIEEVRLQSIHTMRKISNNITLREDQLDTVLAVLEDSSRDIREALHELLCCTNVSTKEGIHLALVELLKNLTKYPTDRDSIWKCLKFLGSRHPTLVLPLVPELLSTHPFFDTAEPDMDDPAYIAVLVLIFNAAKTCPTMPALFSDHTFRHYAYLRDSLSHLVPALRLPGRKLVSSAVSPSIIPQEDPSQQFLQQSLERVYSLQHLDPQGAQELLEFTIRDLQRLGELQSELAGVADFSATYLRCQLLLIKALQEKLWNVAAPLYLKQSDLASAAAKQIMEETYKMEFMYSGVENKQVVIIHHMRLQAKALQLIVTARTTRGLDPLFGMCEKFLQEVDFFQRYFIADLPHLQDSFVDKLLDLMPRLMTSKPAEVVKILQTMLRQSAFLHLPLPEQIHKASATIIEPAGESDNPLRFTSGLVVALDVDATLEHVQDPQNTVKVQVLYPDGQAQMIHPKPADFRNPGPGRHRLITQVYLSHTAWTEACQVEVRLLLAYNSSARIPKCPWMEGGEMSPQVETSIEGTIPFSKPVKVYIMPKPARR

[2] = molecular target: B3
[3] = molecular target: T2, human INTS9, subunit of the human Integrator cleavage module (human, UniProt Q9NV88)
T2 construct: Integrator complex subunit 9 (INTS9), human; source: insect cells, purified as human ICM sample

| Binder | binding result [1] | binding result [2] | binding result [3] |
| --- | --- | --- | --- |
| B1 | binds | binds | binds |
| B2 | binds | – | binds |
| B3 | binds | – | – |
